Sequences with one replicate were seen in a single cluster, so their values are uncertain.
System: ATP
Assay: switch fluorescence ratio, 500 uM ATP over buffer (Cy3 cluster intensity, sum of 5 cycles each) (fold (ratio)); higher = stronger signal-on switching upon ATP binding; sequences stand for … in TCGTCGGCAGCGTCAGATGTGTATAAGAGACAGTTTTTTTTTTTTTTTTTTTTTTTTT…TC
Conditions: aptamer strand: ATP DNA aptamer (quencher-CACCTGGGGGAGTATTGCGGAGGAAGG + anchor), 100 nM annealed; ATP concentration: 500 uM; one replicate
Method in brief: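 For every switch-domain sequence, the fluorescence ratio is the mean of per-cluster values, each being summed target-cycle Cy3 intensity over summed buffer-cycle Cy3 intensity. Clusters outside 100-1000 RFU were excluded. On a modified Illumina MiSeq flow-cell, the Cy3-labelled switching-strand clusters were annealed to 100 nM quencher-labelled ATP aptamer, imaged in selection buffer and then after 15 min with 500 uM ATP at 22 °C. Five such cycles were run, with NaOH stripping and re-annealing between them.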
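Note: ATP exposure 15 min at 22 °C before imaging.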

Sequence | switch fluorescence ratio
TCCGCGCGTG | 1.25
TTGGCCAAAA | 1.01
GGGACTTGCA | 1.05
CAACGAATGA | 0.982
TTCGTATA | 1.01
CGTTTACCAG | 0.989
CCCCAGCAGG | 2.85
CGATTTATGC | 0.999
CTGTTTTCGC | 0.974
CAACTTGCCG | 1.08
GGATCAATGG | 0.97
CTTGCTGGTA | 0.979
GATCTGGGG | 0.984
CGTTTCGGA | 0.978
AAGGTGAGTG | 0.99
AAGTTACGGT | 1.14
TTACCGCGAC | 2.01
ATTAGCTTCT | 1.02
AGAGTCCGCG | 1.19
TGGCGCTTCA | 1.05
CTATGTAGA | 1.04
GATGTCCGCT | 1.13
GTAGTAAAAT | 1.04

Sequence | switch fluorescence ratio
GGCAAACTTT | 0.981
TGGGCAGGAA | 1
CAGAGACAGC | 0.994
CACTAGTTGC | 1.01
CCGGGTGCGG | 0.977
GCACGAGGGA | 1.11
TGTCAATAAT | 1
TTGAGCTATT | 1.17
GATAAATGAG | 0.973
CCTTGGGCGC | 0.973
TTTCCACCAT | 1.11
GAACGCGAGG | 2
AGGCGGCTTA | 0.974
TCCAAAGACC | 1.05
ACCGGCCGGA | 1.04
AATTGGACGC | 1
AGCATTAGGT | 1.01
AGTTGGCGAC | 0.984
ATATCTCGGT | 1.02
TCCCTGTAGA | 1.04
GTTCTCCTCG | 1.08
GGAGCATCGG | 1.06
GATTTTTTCA | 0.986

Sequence | switch fluorescence ratio
GGCCACAGCT | 0.997
GGCTACATAT | 1.02
GGGTTGTCAT | 0.984
ATTTGGTTTA | 1.04
CAATTGGTCA | 1.03
ACATCTGGAA | 1.06
GGCTCGGGAT | 0.991
CTCTCAACGT | 0.999
CCTTGGGTCA | 0.996
GGGTTATGT | 0.988
TTTGATAGGC | 0.985
CTAAGTTGTT | 0.954
AGCGATGTCC | 1.22
GAAGACGTGG | 1.03
ATGGCCCCTG | 1.03
TGTCACTCTT | 0.992
GATATTCATC | 1.01
TTGAAAGTGT | 0.95
GTCAGACCAT | 0.985
AAGTGTAGGC | 1.01
TGGCTGAAAA | 1.02
AAAAGGCTCA | 1.04
TCCTAATGG | 1.02

Sequence | switch fluorescence ratio
TGTACTTATC | 1.05
TTATACGGG | 1.06
CTGGGATAGT | 1.01
CTCGTGTCTG | 1
ACCGCGGTGG | 1.04
TACACAAGTA | 1.09
CAGCTGACGG | 1.01
TAACAAGTTT | 1.01
CACCTAAGCG | 1.03
GCTTTGGGGG | 1.02
CGCGAGTTAG | 1.06
TGCAACCTGC | 1.02
CACATCACCG | 1.44
CGTTAAATT | 1.02
TTTACAACAG | 0.971
AGACTCATAC | 1.28
GCTTCACTCA | 1.01
GCGGTGATGC | 0.961
TCGGCCGCTA | 1.07
CAACGGGACC | 1.27
TTTACGGGGT | 0.933
TTGCCTATT | 0.966
TGGTCGTGGC | 1.03

Sequence | switch fluorescence ratio
CATGCTAGCG | 0.989
TTCTCTATCT | 0.985
CCCTTACG | 2.64
GAGTTTCGGA | 0.954
TATCCTGCAC | 1.23
CTTAGCATGG | 1.07
GTGCAAGATG | 0.997
TTAAATCGGG | 1
AACTGTAGGT | 1.02
AGAGGCGCG | 1.07
GTTGGACCCC | 1.01
CATTACGAGC | 1.16
GCGCCGGTCC | 1.09
CATGCTTCGC | 1
TAAGCTTGAA | 1
ACCTACTGGT | 1.05
CTGAAAAGAG | 1.03
TTAAAGGTGC | 1.21
TAAGGACAAG | 1.02
CATTCGTTAC | 3.51
CGATATATAC | 2.21
GGCCCCATCG | 0.972
CGGATGAAGT | 1.02

Sequence | switch fluorescence ratio
CTCAGTGTTT | 0.981
TCTTTCACAG | 0.996
GATTTGTGTA | 0.969
TACGAATATA | 1.07
GCCTTAGGCG | 0.997
AAAAAAGCAC | 1.08
GTCTGAGGTC | 0.971
GTCCGAGAGT | 1.04
TTTTAGCTGT | 1.06
CCTATCACTA | 1.05
CTCAGTCTAG | 1.01
GAGGGTGCTT | 0.962
GCATAAAATA | 1.06
GGTAAGGCGG | 0.965
ATTAGTTTTA | 0.946
CAGCGTATA | 1.04
ACGTTTGGAA | 0.997
ATGAAAGGAC | 1.04
TCAGAGTCGC | 0.932
CAACTAGTG | 1.05
ATGGTCGGCG | 1.01
AATTCGTCCG | 1.11
AATTTCTAAG | 0.947

Sequence | switch fluorescence ratio
GGCCTACACC | 1.05
TAAGCGGTTT | 1.02
CGTTGTAGAC | 0.992
GATCTAACTT | 1.07
GGAATCGCCT | 1.02
AATCAGTT | 1.01
CAGCACTAGT | 1.02
AAAAGTATCC | 1.14
GCGGAAATGT | 1.01
TGTAATTTCA | 0.998
GGCCGAGCGC | 0.977
CTAGGAAAAA | 1.09
AGTATATACG | 0.927
CAGTTATGTA | 1
CCCGTCTGTC | 1.06
TGAGTTACTC | 2.06
TCTCCGCGCG | 3.08
ATAACAAGCT | 1.01
ACACTTTCTG | 0.991

— the supplement of paper PMC10126150
